Experimental findings from PMC4336329 (PLoS ONE, 2015) are described below.

Among all 310,000 compounds or so, about 2,200 (0.71%) showed an effect of 50% or more. Effects have a minus sign here. Some of the results follow.

Sequence of human ether-à-go-go-related gene (hERG) potassium channel (Q12809 whole entry, looked up): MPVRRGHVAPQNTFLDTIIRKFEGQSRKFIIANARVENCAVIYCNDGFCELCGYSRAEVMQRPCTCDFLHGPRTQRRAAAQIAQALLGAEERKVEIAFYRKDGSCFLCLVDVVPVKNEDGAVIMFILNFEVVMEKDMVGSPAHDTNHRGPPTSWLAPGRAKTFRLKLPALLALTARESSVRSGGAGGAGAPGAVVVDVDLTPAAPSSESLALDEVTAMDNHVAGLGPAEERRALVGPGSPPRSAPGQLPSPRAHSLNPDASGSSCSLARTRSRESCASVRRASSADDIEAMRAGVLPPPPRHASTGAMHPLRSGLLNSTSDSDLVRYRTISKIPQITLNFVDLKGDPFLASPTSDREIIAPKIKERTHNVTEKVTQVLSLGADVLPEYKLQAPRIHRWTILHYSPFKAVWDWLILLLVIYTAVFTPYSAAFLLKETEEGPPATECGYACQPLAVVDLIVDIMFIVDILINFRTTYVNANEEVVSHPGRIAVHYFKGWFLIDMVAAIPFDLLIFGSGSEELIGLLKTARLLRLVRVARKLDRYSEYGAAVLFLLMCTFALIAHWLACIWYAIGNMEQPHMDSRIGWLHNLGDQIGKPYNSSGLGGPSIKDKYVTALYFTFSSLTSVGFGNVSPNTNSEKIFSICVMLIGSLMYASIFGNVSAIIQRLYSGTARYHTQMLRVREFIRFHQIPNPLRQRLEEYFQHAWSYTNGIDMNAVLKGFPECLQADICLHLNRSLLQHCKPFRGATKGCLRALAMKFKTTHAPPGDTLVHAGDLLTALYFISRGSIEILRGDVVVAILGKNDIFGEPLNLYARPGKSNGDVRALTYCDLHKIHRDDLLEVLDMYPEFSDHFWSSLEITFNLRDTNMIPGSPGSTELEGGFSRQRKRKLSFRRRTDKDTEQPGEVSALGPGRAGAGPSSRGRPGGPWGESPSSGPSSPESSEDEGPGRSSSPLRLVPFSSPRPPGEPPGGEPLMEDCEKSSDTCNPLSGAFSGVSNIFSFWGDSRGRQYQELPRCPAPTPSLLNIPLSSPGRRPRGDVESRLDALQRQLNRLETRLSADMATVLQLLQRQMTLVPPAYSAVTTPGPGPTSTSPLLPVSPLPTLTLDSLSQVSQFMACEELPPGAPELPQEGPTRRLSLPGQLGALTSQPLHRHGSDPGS

The experiment concerns the target human ether-à-go-go-related gene (hERG) potassium channel (human, UniProt Q12809). The experiment is described as follows: primary screen, population patch clamp on CHO cells stably expressing hERG.
For the molecule `CC(C)(C)c1ccc(OCCC(=O)OCC(=O)Nc2cccnc2Cl)cc1`, the “hERG current change (%, negative = inhibition) at 1uM” value turned out to be 1.82%.
For `C=CCn1c(SCC(=O)NC2CCCC2)nnc1-c1ccncc1` the value was 15.3%; for `C=CCOc1nc(N2CCCC2)nc(N2CCCC2)n1`, 16.1%.
The same measure for `CCOc1ccc(CCNC(=O)CS(=O)Cc2nc(-c3ccc(C)cc3)oc2C)cc1OCC` (centres unmarked): 9.3%; for `CCN(CC(=O)NCc1ccc(Cl)cc1)C(=O)Cc1ccc(OC)cc1`: -66.9%; for `NS(=O)(=O)c1ccc(CCNC(=O)CSc2cccs2)cc1`: 10.6%.
On to `CC(Sc1nc2cc([N+](=O)[O-])ccc2n1-c1cccc(C(F)(F)F)c1)C(=O)NC(N)=O` (centres unmarked), for which the “hERG current change (%, negative = inhibition) at 1uM” value is 17.5%.
`CCN1CCCC1CNC(=O)c1ccc(CS(=O)(=O)c2ccccc2C)o1` (centres unmarked): the “hERG current change (%, negative = inhibition) at 1uM” value is listed as 7.63%.
For the molecule `CCOC(=O)Cn1c(=O)oc2cc(S(=O)(=O)N(C)c3cccc(C)c3)ccc21`, the “hERG current change (%, negative = inhibition) at 1uM” value is given as -1.77%.
The same measure for `CCn1ccnc1CN1CCC(n2nccc2NC(=O)c2ccccc2OC)CC1`: -64.9%; for `COc1ccc2ccccc2c1CN1CCN(C(=O)c2ccco2)CC1.O=C(O)C(=O)O`: 0.376%.
As to `O=C(Nc1ccccc1N1CCCC1)c1cc(S(=O)(=O)N2CCOCC2)ccc1Cl`, the “hERG current change (%, negative = inhibition) at 1uM” value was -9.58%.
As to `CN1CCN(C(=O)c2ccc(N3CCCC3=O)cc2)CC1`, the “hERG current change (%, negative = inhibition) at 1uM” value was 16.4%.
As to `Cn1c2ccccc2c(=O)c2cc(C#Cc3cccc(N)c3)ccc21`, the “hERG current change (%, negative = inhibition) at 1uM” value was determined as 16%.
For `CC(C)n1nc(C(=O)NNC(=O)c2ccncc2)c2ccccc2c1=O` the value was -1.26%.
The same measure for `O=C(NCCc1ccccc1F)C(=O)Nc1nccs1`: 9.27%; for `COc1cnn(-c2ccc(F)cc2)c(=O)c1Br`: 19.5%; for `CN(NS(=O)(=O)c1ccccc1)c1nc2ccccc2nc1C(F)(F)F`: 15.1%.
Regarding `CCn1cc(/C=C(\NC(=O)c2cc(OC)c(OC)c(OC)c2)C(=O)NCCN2CCOCC2)c2ccccc21`, the “hERG current change (%, negative = inhibition) at 1uM” value is given as 6.64%.
For `COc1ccc(NC(=S)NCCc2ccccc2OC)c(OC)c1` the value was 3.65%; for `Cc1ccc(OCC(=O)Nc2ccc3c(c2)nc2n3CCOC2)cc1`, -8.72%; for `CC(=O)Nc1ccc(NS(=O)(=O)c2cc(-c3cnc(C4CC4)o3)ccc2C)cc1`, 15.5%.
For `CCn1c(C)c2c([n+]1CC)CC(C)(C)CC2=O.[I-]`, the “hERG current change (%, negative = inhibition) at 1uM” value is 4.67%.
The same measure for `O=C1CN(C(=O)COc2ccc(Cl)cc2Cl)c2ccccc2N1`: 20.3%; for `CN(C/N=C(\N)N[N+](=O)[O-])S(=O)(=O)c1ccccc1`: 12%; for `Cc1ccc(Sc2ncccc2C(=O)NCc2cc([N+](=O)[O-])ccc2O)c(C)c1`: 16.4%.
On to `CC(C)C(C(=O)OCC(=O)c1ccccc1)N1C(=O)C2C3C=CC(C3)C2C1=O` (centres unmarked), for which the “hERG current change (%, negative = inhibition) at 1uM” value was 8.74%.
As to `CC(=O)Nc1cc(C(=O)N2CCC3(CC2)OCCO3)ccc1S(=O)(=O)c1ccc(C)cc1`, the “hERG current change (%, negative = inhibition) at 1uM” value was determined as 4.9%.
Take `O=C(CN(Cc1ccccc1)C(=O)c1cccc([N+](=O)[O-])c1)Nc1c(Cl)cc(Cl)cc1Cl`: the “hERG current change (%, negative = inhibition) at 1uM” value is on record as 3.33%.
For the molecule `COc1ccc(C(=O)CNC2=NCCC2)cc1.Cl`, the “hERG current change (%, negative = inhibition) at 1uM” value turned out to be 5.6%.
For `O=C(Nc1ccc(Br)cc1)c1ccccc1Br`, the “hERG current change (%, negative = inhibition) at 1uM” value was 16.9%.
For `COC(=O)c1ccc(NC(=O)C2CC(=O)N(c3ccc(C)cc3)C2)cc1` (centres unmarked) the value was 11%; for `CCc1ccc(NC(=O)c2ccc3nc(N)sc3c2)cc1`, 2.5%.
With `COc1ccc(S(=O)(=O)Nc2ccc(Cc3ccncc3)cc2)cc1OC`, the “hERG current change (%, negative = inhibition) at 1uM” value was determined as 7.28%.
Regarding `Cn1c(=O)n(CCOc2ccccc2Cl)c2ccccc21`, the “hERG current change (%, negative = inhibition) at 1uM” value was -10.5%.
As for `C=C(C)Cn1c(CCCNC(=O)CCC)nc2ccccc21`, the “hERG current change (%, negative = inhibition) at 1uM” value was 8.54%.
Regarding `Cc1cccc(C)c1OCC(=O)N1CCc2ccccc2C1`, the “hERG current change (%, negative = inhibition) at 1uM” value worked out at 14.2%.
As for `Br.COc1ccccc1N1Cc2ccccc2C1`, the “hERG current change (%, negative = inhibition) at 1uM” value is listed as -5.51%.
For `COc1ccc(C(=O)Nc2cc3c4c(c2)CC(=O)N4CCC3)c(OC)c1` the value was 4.94%.
On to `CCCCNc1nc2c(-c3ccccc3)nnn2c2ccccc12`, for which the “hERG current change (%, negative = inhibition) at 1uM” value amounted to 17.8%.
The same measure for `CC(=O)c1sc(NC(=O)c2ccc3c(c2)OCO3)nc1C`: 1.49%; for `CCn1nnc(NC(=O)c2ccccc2Br)n1`: 24%; for `COc1ccc(Cn2c(-c3ccco3)nc3oc4ccccc4c(=O)c3c2=O)cc1`: 0.85%.
Turning to `CCC1CCCCN1S(=O)(=O)c1ccccc1` (centres unmarked), the “hERG current change (%, negative = inhibition) at 1uM” value is 3.47%.
As to `Cc1ccc(NC(=O)C(C)Sc2nnc(-c3cccnc3)n2-c2ccccc2)cc1` (centres unmarked), the “hERG current change (%, negative = inhibition) at 1uM” value is reported as -86.2%.
For `Cc1ccccc1-c1ccc(=O)n(CC(=O)Nc2ccc(-n3cnnn3)cc2)n1`, the “hERG current change (%, negative = inhibition) at 1uM” value is on record as -1.49%.
Take `CCc1ccccc1Nc1nc(-c2cccnc2)cs1`: the “hERG current change (%, negative = inhibition) at 1uM” value is listed as 10.5%.
On to `COc1ccc(Cl)cc1C(Nc1cccnc1)c1ccc2cccnc2c1O` (centres unmarked), for which the “hERG current change (%, negative = inhibition) at 1uM” value stood at 7.36%.
As to `CS(=O)(=O)N(Cc1ccccc1Cl)c1ccc(C(=O)NCc2cccnc2)cc1`, the “hERG current change (%, negative = inhibition) at 1uM” value is on record as 2.64%.
For `CC1=CC(=Nc2c(C)n(C)n(-c3ccccc3)c2=O)C=CC1=O`, the “hERG current change (%, negative = inhibition) at 1uM” value is listed as -5.17%.
The same measure for `Cc1cc(C)n2ncc(/C(N)=N/OC(=O)c3ccccc3F)c2n1`: 7.6%; for `CCCc1cc(=O)n2[nH]c(NCc3ccc(OC)cc3)nc2n1`: 13.1%; for `CCN(c1ccc(C)cc1C)S(=O)(=O)c1nnc(NC(=O)c2ccco2)s1`: 10%.
With `Cc1cccn2c(=O)c3cc(C#N)c(=N)n(CCCN4CCOCC4)c3nc12`, the “hERG current change (%, negative = inhibition) at 1uM” value is given as -78.1%.
As to `N#Cc1c(SCC(=O)O)nc(-c2ccccc2)c2c1CCCC2`, the “hERG current change (%, negative = inhibition) at 1uM” value is recorded as 5.83%.
On to `O=C(N/N=C/c1cn(-c2ccccc2)nc1-c1cc2ccccc2o1)c1cccnc1`, for which the “hERG current change (%, negative = inhibition) at 1uM” value is 2.8%.
The same measure for `CSc1nc(C)cc(OCCNS(=O)(=O)c2cc(C)ccc2C)n1`: 10.2%; for `COc1ccc(/C=C2\SC(=S)N(CCCC(=O)NNC(=O)c3ccccc3O)C2=O)cc1`: 11.1%; for `COc1cccc(C(=O)Nc2ccc(N3CCN(C(=O)c4ccco4)CC3)cc2)c1`: 10.1%.
In the case of `CCOC(=O)/C=C/C(=O)N1CCc2ccccc21`, the “hERG current change (%, negative = inhibition) at 1uM” value worked out at 7.83%.
As to `Cc1cc(C(=O)NCCCc2ccccc2)no1`, the “hERG current change (%, negative = inhibition) at 1uM” value stood at 0.603%.
The same measure for `CC(C)C(NC(=O)c1ccc(C(C)(C)C)cc1)C(=O)NCC1(N(C)C)CCCCC1` (centres unmarked): 11.8%; for `CSc1ccc(S(=O)(=O)NCC(=O)OCC(=O)NCc2cccs2)cc1[N+](=O)[O-]`: 3.18%.
As to `CCc1ccc(OCC(=O)NNC(=O)c2cc(S(=O)(=O)N(C)C)ccc2N2CCCC2)cc1`, the “hERG current change (%, negative = inhibition) at 1uM” value is reported as -9.9%.
Consider `CC(C)(C)SCCNC(=O)c1ccc(Cl)c([N+](=O)[O-])c1`, for which the “hERG current change (%, negative = inhibition) at 1uM” value was 8.24%.
In the case of `COc1ccc(CCNC(=O)c2cc3c(=O)n4ccccc4nc3n(CC3CCCO3)c2=N)cc1OC` (centres unmarked), the “hERG current change (%, negative = inhibition) at 1uM” value is recorded as -90.3%.
With `Cc1ccc(NC(=O)N2N=C(c3ccc(F)cc3)CC2c2ccc(F)cc2)cc1` (centres unmarked), the “hERG current change (%, negative = inhibition) at 1uM” value is recorded as 1.33%.
Regarding `Br.O=S(=O)(c1ccc(C2=CSC3=NCCN23)cc1)N1CCOCC1`, the “hERG current change (%, negative = inhibition) at 1uM” value is listed as 4.74%.
For the molecule `O=c1c(C(c2ccc(O)cc2)c2c(O)nc3n(c2=O)CCCS3)c(O)nc2n1CCCS2`, the “hERG current change (%, negative = inhibition) at 1uM” value is on record as -4.62%.
In the case of `CN(C)CCN(C(=O)C1=COCCO1)c1nc2ccc(Cl)cc2s1.Cl`, the “hERG current change (%, negative = inhibition) at 1uM” value is given as -62.4%.
As for `O=C(Nc1cccc(-c2cccc(Cl)c2)c1)C1CCN(Cc2ccon2)CC1`, the “hERG current change (%, negative = inhibition) at 1uM” value is -5.08%.
As for `CCc1noc(C)c1C(=O)Nc1ccc(Cl)c(S(=O)(=O)N2CCCCC2)c1`, the “hERG current change (%, negative = inhibition) at 1uM” value amounted to 6.76%.
Consider `CCCNC(=O)Cc1c(OC)ccc2cc(Br)ccc12`, for which the “hERG current change (%, negative = inhibition) at 1uM” value stood at 11.5%.
Consider `CCn1c(C)c(P(=O)(N2CCOCC2)N2CCOCC2)c2ccccc21`, for which the “hERG current change (%, negative = inhibition) at 1uM” value turned out to be 3.17%.
With `CCCCN(C)CCn1c(=S)[nH]c2cc(OCC)c(OCC)cc2c1=O`, the “hERG current change (%, negative = inhibition) at 1uM” value was found to be 2.17%.
`CCn1c(SCC(=O)Nc2nc(-c3ccccc3)cs2)nc2c1c(=O)n(C)c(=O)n2C`: the “hERG current change (%, negative = inhibition) at 1uM” value is listed as 16%.
For `Cc1cc2c(cc1S(=O)(=O)NCCc1ccc(Cl)cc1)OCC(=O)N2`, the “hERG current change (%, negative = inhibition) at 1uM” value is recorded as -13.5%.
Regarding `C=CCn1c(=NC(=O)c2ccco2)sc2cc(C(=O)OC)ccc21`, the “hERG current change (%, negative = inhibition) at 1uM” value was found to be 2.92%.
With `CCOC(=O)/C=C1\SCC(=O)N1CC(=O)NC(C)C`, the “hERG current change (%, negative = inhibition) at 1uM” value was found to be 16.6%.
Regarding `COC(=O)c1cc2ccsc2n1CC(=O)N(C)C1CCCCC1`, the “hERG current change (%, negative = inhibition) at 1uM” value is on record as 11.6%.
Consider `CCOc1ccc(N(CC(=O)OC)S(=O)(=O)c2c(C)noc2C)cc1`, for which the “hERG current change (%, negative = inhibition) at 1uM” value stood at 12.9%.
Consider `OC(COc1ccccc1)Cn1cc(Br)cn1` (centres unmarked), for which the “hERG current change (%, negative = inhibition) at 1uM” value stood at 4.49%.
Consider `COCCNC(=S)N1CCC(C(=O)c2ccc3c(c2)OCCO3)CC1`, for which the “hERG current change (%, negative = inhibition) at 1uM” value was found to be 33.2%.
For `COC(=O)c1c(C)oc(C)c1S(=O)(=O)N1CCOCC1` the value was 13.1%; for `COc1ccc(C2C(C#N)C(C#N)N3CCCN23)cc1` (centres unmarked), 1.84%; for `COCCN=C1Sc2nc3cc(C)c(C)cc3cc2CN1Cc1cccs1`, 8.08%.
For `CCOC(=O)/C(C#N)=C\c1ccc(OC)c(OC)c1` the value was 6.46%; for `S=C(Nc1ccccc1)N1CCn2cccc2C1c1cccnc1` (centres unmarked), 0.965%; for `CC(C)Oc1cccc(C(=O)C2CCCN(Cc3ccc4nonc4c3)C2)c1` (centres unmarked), 3.15%.
